Values joined by “and” are separate entries in the source; they are usually repeats but may differ in a detail not shown here. Equal values may be shown once. The inconclusive results got no clear call from the source; some entries with a clear call stand among them for comparison. Potencies beside an inconclusive call are fits to weak or partial responses and may not hold up. The source holds several records for some structures; these can differ, active in one and inactive in another. Active and inactive are the calls of the source. Calls follow the shape of the dose curve; as a rule, active = well fitted curve in the direction sought with a large enough effect in the repeat runs; inconclusive = weak or mixed curves; inactive = no such curve, though single readings can be large; an effect the other way counts as inactive or inconclusive.
Key:
[1] = A CellTox Green Cytotoxicity Assay to monitor cytotoxicity in HEK293 cells - 40 hour (AID 1224871); also: nearly all actives have a fitted effect of over 45% in size
In short: (§1)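 HEK293 cells premixed with CellTox Green dye were seeded at 600 cells/well and left 5 h at 37 C/5% CO2 before pin transfer of 23 nL compound in DMSO. Fluorescence from dye bound to dead-cell DNA was read during 40 h treatment.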

[2] = qHTS RealTime-Glo MT Cell Viability Assay in HEK293 cells - 16 hour (AID 1224872); also: nearly all actives have a fitted effect of over 50% in size
In short: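 Homogeneous bioluminescent viability format in HEK293 cells (600 cells/well). Following 5 h at 37 C/5% CO2, 23 nL compound was pintooled; the signal was measured repeatedly during 40 h incubation.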

[3] = qHTS RealTime-Glo MT Cell Viability Assay in HEK293 cells - 40 hour (AID 1224874); settings: RealTime-Glo luminescence; max response: hits give low values; also: nearly all actives have a fitted effect of over 50% in size; as to max response: % is scaled to controls: 0 for no effect and ±100 for the full control effect
In short: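 HEK293 cells mixed with RealTime-Glo reagents (NanoLuc plus cell-permeant prosubstrate) at 600 cells/well, preincubated 5 h at 37 C/5% CO2, then given 23 nL compound in DMSO. Nonlytic luminescence from viable cells was read at 0, 8, 16, 24, 32 and 40 h.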

[4] = A CellTox Green Cytotoxicity Assay to monitor cytotoxicity in HEK293 cells - 24 hour (AID 1224875); also: nearly all actives have a fitted effect of over 45% in size
In short: as §1

[5] = A CellTox Green Cytotoxicity Assay to monitor cytotoxicity in HepG2 cells - 24 hour (AID 1224878); also: nearly all actives have a fitted effect of over 45% in size
In short: (§2)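 HepG2 cells were seeded together with the CellTox Green dye at 600 cells/well, left 5 h at 37 C/5% CO2, then given compounds in DMSO. Fluorescence from dye bound to dead-cell DNA was read repeatedly over 40 h of treatment at 37 C.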

[6] = A CellTox Green Cytotoxicity Assay to monitor cytotoxicity in HepG2 cells - 40 hour (AID 1224879); also: nearly all actives have a fitted effect of over 40% in size
In short: as §2

[7] = qHTS RealTime-Glo MT Cell Viability Assay in HepG2 cells - 8 hour (AID 1224873); also: nearly all actives have a fitted effect of over 55% in size
In short: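 Real-time viability: cells seeded at 600 per well together with NanoLuc and cell-permeant prosubstrate, compounds added after 5 h incubation. Luminescence tracked at 0, 8, 16, 24, 32 and 40 h of exposure.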

[8] = A CellTox Green Cytotoxicity Assay to monitor cytotoxicity in HepG2 cells - 16 hour (AID 1224876); also: nearly all actives have a fitted effect of over 45% in size
In short: as §2
Potency is read from the fitted curve at half-maximal effect; tags tell the direction and shape of the fitted curve.

O=Cc1cc(O)ccc1Br
Potency [1]: inconclusive: 55.7 µM [activator, single point]
Potency [2]: inconclusive: 19.8 µM [cytotoxic, partial curve]
Potency [3]: inconclusive: 12.5 µM [cytotoxic, full curve]
Potency [4]: inconclusive: 55.7 µM [activator, single point]
Potency [5]: inconclusive: 55.7 µM [activator, partial curve, poor fit]
Potency [6]: inconclusive: 62.5 µM [activator, single point]

CCCCCCCCCCC[C@@H](C[C@@H]1OC(=O)[C@H]1CCCCCC)OC(=O)[C@H](CC(C)C)NC=O
Potency [1]: inconclusive: 26.8 µM [activator, single point]
Potency [2]: active: 13.4 µM
Potency [6]: active: 19 µM

Nc1cc(Cl)c(O)c(Cl)c1
Potency [1]: inconclusive: 54.9 µM [activator, single point]
Potency [7]: inconclusive: 43.6 µM [falling, partial curve]
max response [3]: inactive: -1.5%

C/C=C(\C)C(=O)OCc1ccccc1
Potency [1]: inconclusive: 21.9 µM [activator, partial curve, poor fit]
max response [3]: inactive: -2.09%

CN(C)c1ccc(/C=C/c2ccc([N+](=O)[O-])cc2)cc1
Potency [1]: inconclusive: 0.555 µM [activator, single point]
Potency [4]: inconclusive: 0.555 µM [activator, single point]

CC1(C)S[C@@H]2[C@H](NC(=O)COc3ccccc3)C(=O)N2[C@H]1C(=O)O
Potency [1]: inconclusive: 24.6 µM [activator, single point]
Potency [4]: inconclusive: 21.9 µM [activator, single point]

CCO[Si](CCCSSSSCCC[Si](OCC)(OCC)OCC)(OCC)OCC
Potency [1]: inconclusive: 55 µM [activator, single point]
Potency [4]: inconclusive: 61.7 µM [activator, single point]

COc1ccc(C(=O)CC(=O)c2ccc(C(C)(C)C)cc2)cc1
Potency [1]: inconclusive: 26.8 µM [activator, single point]
Potency [4]: inconclusive: 26.8 µM [activator, single point]
Potency [5]: active: 0.0756 µM

CCN(CC)CCSC(=O)C(c1ccccc1)c1ccccc1
Potency [1]: inconclusive: 26.8 µM [activator, single point]
Potency [4]: inconclusive: 26.8 µM [activator, single point]
Potency [6]: inconclusive: 23.9 µM [activator, single point]

C[C@H](CCC(=O)O)[C@H]1CC[C@H]2[C@@H]3CC[C@@H]4C[C@H](O)CC[C@]4(C)[C@H]3C[C@H](O)[C@]12C
Potency [1]: inconclusive: 61.9 µM [activator, single point]
Potency [4]: inconclusive: 55.1 µM [activator, single point]

Oc1ccc(Cc2ccccc2)cc1
Potency [1]: inconclusive: 50.9 µM [activator, single point]
Potency [4]: inconclusive: 57.1 µM [activator, single point]
Potency [5]: inconclusive: 50.9 µM [activator, partial curve, poor fit]
Potency [6]: inconclusive: 50.9 µM [activator, single point]

O=C(c1ccc(O)c(O)c1)c1ccc(O)cc1O
Potency [1]: inconclusive: 24.5 µM [activator, single point]
Potency [4]: inconclusive: 21.8 µM [activator, single point]
Potency [8]: inconclusive: 54.9 µM [activator, partial curve, poor fit]
Potency [5]: inconclusive: 54.9 µM [activator, partial curve, poor fit]
Potency [6]: inconclusive: 54.9 µM [activator, single point]

Cc1ccc(-c2ccccc2)cc1
Potency [1]: inconclusive: 38.9 µM [activator, partial curve, poor fit]
Potency [3]: inconclusive: 34.7 µM [cytotoxic, partial curve, poor fit]
Potency [8]: active: 49 µM

CCN(CC)CCNC(=O)c1cc(S(C)(=O)=O)ccc1OC
Potency [1]: inconclusive: 9.52 µM [activator, single point]
Potency [4]: inconclusive: 10.7 µM [activator, single point]

CCCCCCCCCOC(=O)CCCCC(=O)OCCCCCCC
Potency [1]: active: 24.5 µM
Potency [5]: active: 24.5 µM

Cc1cccc(C(C)(C)C)c1O
Potency [1]: inconclusive: 61.7 µM [activator, single point]
Potency [4]: inconclusive: 61.7 µM [activator, single point]
Potency [6]: inconclusive: 49 µM [activator, partial curve, poor fit]

Clc1ccc2c(c1)CCc1cccnc1C2=C1CCNCC1
Potency [1]: inconclusive: 26.8 µM [activator, single point]
Potency [3]: inconclusive: 10.7 µM [cytotoxic, full curve, poor fit]
Potency [8]: inconclusive: 26.8 µM [activator, single point]

COc1ccccc1O
Potency [1]: inconclusive: 62 µM [activator, single point]
Potency [4]: inconclusive: 62 µM [activator, single point]
Potency [8]: inconclusive: 22 µM [activator, single point]
Potency [5]: inconclusive: 22.1 µM [activator, partial curve, poor fit]
Potency [6]: inconclusive: 22 µM [activator, single point]

CCCCC
Potency [1]: inconclusive: 21.5 µM [activator, single point]
Potency [4]: inconclusive: 21.5 µM [activator, single point]

Clc1nc(Cl)c(Cl)c(Cl)c1Cl
Potency [1]: active: 43.9 µM
Potency [4]: inconclusive: 49.2 µM [activator, partial curve, poor fit]
Potency [5]: inconclusive: 55.3 µM [activator, partial curve, poor fit]
Potency [6]: inconclusive: 55.3 µM [activator, partial curve, poor fit]

O=C(O)c1cccc(Cl)n1
Potency [1]: inconclusive: 54.9 µM [activator, single point]
Potency [4]: inconclusive: 54.9 µM [activator, single point]
Potency [6]: inconclusive: 54.9 µM [activator, partial curve, poor fit]

CC1(C)CCC(C)(C)c2cc(C(=O)Nc3ccc(C(=O)O)cc3)ccc21
Potency [1]: inconclusive: 61.6 µM [activator, single point]
Potency [4]: inconclusive: 61.6 µM [activator, single point]
Potency [8]: inconclusive: 54.9 µM [activator, single point]
Potency [5]: inconclusive: 61.6 µM [activator, single point]
Potency [6]: inconclusive: 54.9 µM [activator, single point]

Cc1cc(=O)oc2cc(O)cc(O)c12
Potency [1]: inconclusive: 61.9 µM [activator, single point]
Potency [4]: inconclusive: 61.9 µM [activator, single point]

C/C=C(\C)C(=O)OCCc1ccccc1
Potency [1]: inconclusive: 34.7 µM [activator, partial curve]
Potency [4]: inconclusive: 30.9 µM [activator, partial curve, poor fit]

COc1cc(C=O)ccc1O
Potency [1]: inactive
Potency [4]: inconclusive: 24.7 µM [activator, partial curve, poor fit]

C=CC(C)(CCC=C(C)C)OC(=O)c1ccccc1 (stereo not given)
Potency [1]: inconclusive: 54.9 µM [activator, single point]
Potency [4]: inconclusive: 61.6 µM [activator, single point]

CN(Cc1ccc(C(C)(C)C)cc1)Cc1cccc2ccccc12
Potency [1]: inconclusive: 26.8 µM [activator, single point]
Potency [4]: inconclusive: 26.8 µM [activator, single point]

CC(C)=CCCC(C)CCO (stereo not given)
Potency [1]: inconclusive: 57 µM [activator, single point]
Potency [4]: inconclusive: 64 µM [activator, single point]

CCCCCCCCCCCCCCCC(=O)OC[C@H](O)[C@H]1OC(=O)C(O)=C1O
Potency [1]: inconclusive: 54.9 µM [activator, single point]
Potency [4]: inconclusive: 54.9 µM [activator, single point]

O=C(Oc1ccccc1)c1ccccc1O
Potency [1]: inconclusive: 49.2 µM [activator, single point] and inconclusive: 54.9 µM [activator, single point]
max response [3]: inactive: -18.8% and inactive: -3% and inactive: 3.05%
Potency [4]: inconclusive: 54.9 µM [activator, partial curve, poor fit]
Potency [5]: inconclusive: 49 µM [activator, partial curve, poor fit] and inconclusive: 26.8 µM [activator, single point]
Potency [6]: inconclusive: 49 µM [activator, partial curve, poor fit] and inconclusive: 26.8 µM [activator, single point]

COC(=O)CCC(=O)OC
Potency [1]: inconclusive: 63.3 µM [activator, single point]
Potency [4]: inconclusive: 63.3 µM [activator, single point]

O=C(c1ccccc1)c1ccccc1O
Potency [1]: inconclusive: 56.3 µM [activator, single point] and inconclusive: 43.6 µM [activator, partial curve, poor fit]
Potency [4]: inconclusive: 123 µM [activator, partial curve, poor fit]
Potency [8]: inconclusive: 54.9 µM [activator, single point]
Potency [5]: inconclusive: 54.9 µM [activator, single point]
Potency [6]: inconclusive: 54.9 µM [activator, single point]

Source: PubChem BioAssay (Tox21)
